Laboratory results taken from the supplement of paper PMC6531468.
The list shows a part of the results. These are enrichments in a pooled selection; single values are uncertain. Scores sum up all selected molecules that hold the word; the word was not tested alone.

Each sequence was assayed on IMP3 KH1-4 (assay: 6-mer SELEX enrichment z-score vs GST control; IMP3 is the RNA-binding protein IGF2BP3; higher = more enriched by binding). Conditions: construct: KH1-4 (164-579); SELEX round: R4.
Experimental: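 SELEX-seq with GST-tagged IMP3 KH1-4 (Pro164-Lys579) and an N40 RNA pool, round 4. 6-mer z-score of sequence-tag enrichment normalised to the corresponding GST SELEX round; RNA k-mers written as DNA (T for U).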

Chain of IMP3 KH1-4 (chain, as listed by the source): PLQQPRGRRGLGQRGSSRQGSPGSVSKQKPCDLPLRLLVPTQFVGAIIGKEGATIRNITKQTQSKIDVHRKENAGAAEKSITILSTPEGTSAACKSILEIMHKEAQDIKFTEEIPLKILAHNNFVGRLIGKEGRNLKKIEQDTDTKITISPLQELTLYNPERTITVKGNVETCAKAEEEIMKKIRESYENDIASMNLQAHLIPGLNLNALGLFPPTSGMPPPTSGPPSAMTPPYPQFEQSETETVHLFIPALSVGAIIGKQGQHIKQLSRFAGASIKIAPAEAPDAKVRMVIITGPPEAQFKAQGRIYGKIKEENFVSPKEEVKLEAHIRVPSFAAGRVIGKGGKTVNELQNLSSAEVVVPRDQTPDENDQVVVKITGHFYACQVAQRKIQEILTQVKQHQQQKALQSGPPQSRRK

Sequence | 6-mer SELEX enrichment z-score
AGCCGA | -1.55
GCGATT | -0.285
GTTAGC | -0.067
ACTATT | 1.64
GGTAAA | -0.287
TTGCTA | 0.276
CAGGGG | 1.07
CCGTGA | -0.191
CTACAG | -0.014
GGCTGT | 0.26
CATGCG | -0.382
CGTTGC | -0.715
GTGTCT | -0.278
TTTGGT | 0.028
AGCGGA | -1.07
TCTTTA | 0.555
GCAGTA | 0.154
TGTCGG | 0.728
TGAGAC | -0.733
GAAGGC | 0.047

Sequence | 6-mer SELEX enrichment z-score
CTCCCT | 0.03
CTTTCT | 0.696
ATCCGA | -1.61
ATGATA | 2
TTGTCA | 0.141
TTAGCG | -0.607
CTGACC | -1.13
AGGACA | 1.53
CGGAAG | -0.396
CGTTGA | -0.986
CTTAAG | -0.281
AATTTG | 0.466
GTTTAC | -0.149
GTGCCA | -0.34
ATAACC | 0.049
AGCAGG | 0.741
CTCGCC | -0.576
CTAATA | 0.958
GAAGCG | -1.69
ACATTT | 1.59
